From the supplement of paper PMC3334620
The full ranking holds about 33,000 sequences; the median of “E-score (-0.5 to 0.5)” is about -0.016, and the highest 2% start at about 0.32. The list shows a part of the results.

biological target: T1, Stp1 (UniProt B3LFK1); experiment: PBM E-score (8-mer binding enrichment) (E-score (-0.5 to 0.5)); higher = stronger / more preferred TF binding; most listed sequences are background and not binding sites; details: protein concentration: 200 nM; construct: GST-full length
T1 sequence: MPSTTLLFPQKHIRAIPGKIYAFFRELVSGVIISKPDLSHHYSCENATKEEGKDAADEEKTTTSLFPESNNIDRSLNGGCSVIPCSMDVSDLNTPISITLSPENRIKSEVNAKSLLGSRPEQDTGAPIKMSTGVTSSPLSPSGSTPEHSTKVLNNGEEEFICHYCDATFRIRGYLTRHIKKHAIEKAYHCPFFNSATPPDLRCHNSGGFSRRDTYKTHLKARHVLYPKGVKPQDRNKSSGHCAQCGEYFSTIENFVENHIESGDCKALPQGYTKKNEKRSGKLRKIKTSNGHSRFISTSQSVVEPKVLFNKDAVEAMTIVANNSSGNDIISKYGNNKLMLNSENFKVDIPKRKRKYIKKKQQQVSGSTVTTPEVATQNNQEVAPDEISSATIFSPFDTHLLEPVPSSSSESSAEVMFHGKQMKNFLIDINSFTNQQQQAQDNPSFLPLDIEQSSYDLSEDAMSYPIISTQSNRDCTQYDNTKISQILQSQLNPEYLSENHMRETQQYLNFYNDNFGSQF
Method in brief: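 Universal all-10-mer Agilent arrays, double-stranded by primer extension on fresh or once-stripped slides, were probed with about 100-200 nM GST-tagged yeast transcription factors made by PURExpress. Fluorescent anti-GST detected bound protein, and masliner normalised the scans. E-scores from the Universal PBM Analysis Suite were given to each ungapped eight-base word pooled with its reverse complement.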

Sequence | PBM E-score
AAGGTCCT | -0.234
AGACAGGC | -0.0258
ATACACGA | -0.0471
GGCGTGGA | -0.0299
ACAGATCA | -0.122
CACTCTCA | 0.0406
GAAATTAA | 0.242
CACATAGA | 0.0469
ATTTATCC | 0.27
AGAACCCG | -0.227
TAAAATTA | 0.153
CCTTACGA | 0.109
ATCTCTAA | 0.0233
TCATAACA | 0.25
ACGGCCAA | 0.278
CGTCTCGC | 0.0123
AGCAACTC | -0.00471
AATCTGAA | 0.146
CAAGCAGG | -0.148
CACAGACC | -0.0852
GCATCAGC | -0.0129
TAGCATCA | -0.0364
TCCCAAAA | 0.164
AATCTAGC | -0.0235
CTCCGTTC | 0.072

Sequence | PBM E-score
GCATTTTA | 0.195
TATGAAGA | 0.17
AGATGTGA | 0.204
AAGCAATT | 0.177
GAATGATA | 0.196
AAAACTCA | 0.0761
CATCGACC | 0.076
CGTGTGAG | 0.0462
GCTGTTAA | 0.0804
CAGTGACG | -0.105
ACGCGTTG | 0.0971
ACAGCTAT | -0.22
CCGTCCTA | 0.0389
ACGCTGAC | -0.131
GCCTAAAA | -0.0419
CCTGCGCA | -0.204
GTACCAAC | -0.0004
ATCGAAAC | 0.152
CAGGCCCA | -0.178
CCAGTTCG | -0.039
AGGAATCC | -0.00808
ATCGGGTA | -0.19
TACATCGA | 0.0474
CTTACGCC | 0.189
ACTCCTTG | -0.164

Sequence | PBM E-score
ACGCTACC | -0.239
AAATACGA | 0.0656
GAGGTTAA | -0.21
GCCAACCC | -0.176
AGAGGCCC | -0.273
ATTTTATC | 0.182
AGCGATTC | -0.194
ATCGTGAC | 0.0453
ATTCTCGA | 0.101
GCTTAGTA | 0.0302
CAATTACC | -0.00841
CTGCTACC | -0.0964
CCATAGTA | -0.13
AGTGAACG | -0.0702
CGCCGGAG | -0.0423
AACTAAAC | 0.148
CTTTCGCA | 0.108
ATCTAAAT | 0.191
CTTCGGTC | 0.0236
GCAAAAGC | 0.148
CGGTCGTA | -0.215
ACGAGGCA | 0.37
CAAGGTAG | -0.194
GGGGTCCA | -0.323
CACGAGGC | 0.415

Sequence | PBM E-score
CGGCAAAA | 0.357
CAGGAGGC | 0.108
GCCATCGA | 0.0584
CAAACCCG | 0.0896
AGTTAGCC | 0.0147
CTGGCCAC | -0.187
ACCTGTCC | -0.219
GATCTATA | 0.0822
ACGGCCGA | 0.191
CAGCGTCG | -0.0613
CCAGAGCC | 0.138
CGCTTCTC | 0.0513
GACTAATA | 0.0804
ATGTAAGG | -0.00384
ACGGATAG | 0.107
GGAACTGA | -0.0156
AGAATGCC | 0.262
CGCTTTAG | -0.0241
GTTGTTGA | 0.0717
GATTTGTA | 0.114
TAGAAATA | 0.0228
TGGTCGAA | -0.295
AGTGAACA | -0.135
GCCGGAGC | -0.0765
CCCATTCG | -0.0463

Sequence | PBM E-score
CCACTATA | -0.00593
GTTTCCGA | 0.0394
GCAGGACC | -0.315
GAAATGAC | 0.0359
AATATGCG | 0.114
AATTTTGC | 0.109
AAGCCCTG | 0.0325
CCTATTAG | 0.0669
CCCCATAA | -0.137
CCATATGC | 0.101
CGCTGGCA | 0.0475
CAGCATCG | -0.221
AGGGATTC | -0.11
CCGATCCC | -0.224
CGTCGTAA | -0.0276
AATGGGTC | -0.287
CACAGATC | -0.0371
TCTTGCCA | 0.0862
TCAGGGAA | -0.0569
AGTTTGCA | 0.0363
GCGCCATA | 0.25
AAATGCAG | -0.0331
CACAGCTC | -0.072
AGAGACTA | -0.0659
CAACTTCC | 0.00968

Sequence | PBM E-score
ACCTAGTG | -0.119
AAATTCTG | 0.114
GGCACGAC | 0.208
AAGATTGG | -0.0975
ACCGACGT | -0.0131
GCACGTTA | 0.0836
ATCTACTG | 0.0413
CCGGCAAA | 0.116
ACACCATC | -0.0987
AGCACAAT | 0.172
GTAATAAA | 0.286
GTCAGTTA | -0.0449
CATGTGGG | -0.144
CACAGTGA | -0.102
AACGGTTC | -0.0856
AAAGACAA | 0.123
ACCTGTTC | -0.0857
CATGTTTA | 0.0324
ACCATAAT | 0.14
CCCAGGCG | -0.177
CTCTTCTC | -0.104
ACTTGCTC | -0.146
CATTCACA | 0.0689
CTAAAAGC | 0.0149
CCCCCTTC | -0.364

Sequence | PBM E-score
CGTTACGC | 0.112
CAACATTC | -0.155
TGCCACAA | 0.167
AACCCATG | -0.149
CTTTGAGA | 0.199
ATTCCGCA | 0.0903
AAATGTTC | -0.121
ATGGCAAG | 0.216
AGTATCAG | -0.081
AAGAGCAT | -0.0887
ACATGGTG | 0.0222
ACGGGACC | -0.0673
CTCGAGGA | -0.0744
CACTTGGG | -0.0291
ACCCGGGT | -0.249
TAACGGAA | 0.0508
CAAAATGG | 0.112
CCCGAACG | 0.00944
AGCGCTTC | -0.0737
ACCACGAC | -0.178
GCTTGCGA | 0.167
ATTCATTG | 0.126
